Laboratory results reported in US20200385445A1 (COMPUGEN, published 2020).

Molecular target: T1, human PVRL2-His (Catalog #2229-N2-050/CF, R&D Systems) (human, UniProt Q92692 32-360)
T1 construct: Bought (R&D Systems); also called His-tagged PVRL2 recombinant protein; PVRL2 (CD112)
T1 sequence (looked up): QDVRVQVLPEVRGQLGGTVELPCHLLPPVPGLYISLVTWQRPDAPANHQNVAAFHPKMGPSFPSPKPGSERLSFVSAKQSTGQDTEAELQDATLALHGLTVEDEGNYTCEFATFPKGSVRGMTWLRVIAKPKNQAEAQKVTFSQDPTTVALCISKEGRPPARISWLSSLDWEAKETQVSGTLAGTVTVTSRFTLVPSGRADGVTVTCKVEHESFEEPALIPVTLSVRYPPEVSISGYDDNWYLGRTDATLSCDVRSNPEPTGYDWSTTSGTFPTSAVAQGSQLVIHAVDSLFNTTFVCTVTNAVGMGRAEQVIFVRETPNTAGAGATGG
Experiment: ELISA, PVRIG H:H titrated on coated His-tagged PVRL2, one-site binding fit

B1: PVRIG hECD-hIg fusion protein (ECD of human PVRIG fused to the Fc of human IgG1 bearing C220, C226 and C229 to S mutations at the hinge) (Fc fusion)
chain: TPEVWVQVRMEATELSSFTIRCGFLGSGSISLVTVSWGGPNGAGGTTLAVLHPERGIRQWAPARQARWETQSSISLILEGSGASSPCANTTFCCKFASFPEGSWEACGSLPPSSDPGLSAPPTPAPILRAD[omitted - human IgG1 Fc with changes]
notes: also called PVRIG H:H; PVRIG-ECD-Ig
  Kd: 13 nM
